In all, about 110,000 compounds went through this assay and about 230 (0.21%) showed an effect of 50% or more. This is one part of the list.
Biological target: DPAP1 (Plasmodium falciparum, UniProt Q8IIJ9)
Experiment: primary screen, percent inhibition; read by cleavage of a fluorogenic dipeptide substrate; higher = more effect of the substance
Design: species or system P. falciparum D10 trophozoite lysates; single well
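Further: 30 min substrate incubation versus DMSO and 10 µM JCP410 controls.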

DPAP1, sequence (Q8IIJ9 whole entry, looked up): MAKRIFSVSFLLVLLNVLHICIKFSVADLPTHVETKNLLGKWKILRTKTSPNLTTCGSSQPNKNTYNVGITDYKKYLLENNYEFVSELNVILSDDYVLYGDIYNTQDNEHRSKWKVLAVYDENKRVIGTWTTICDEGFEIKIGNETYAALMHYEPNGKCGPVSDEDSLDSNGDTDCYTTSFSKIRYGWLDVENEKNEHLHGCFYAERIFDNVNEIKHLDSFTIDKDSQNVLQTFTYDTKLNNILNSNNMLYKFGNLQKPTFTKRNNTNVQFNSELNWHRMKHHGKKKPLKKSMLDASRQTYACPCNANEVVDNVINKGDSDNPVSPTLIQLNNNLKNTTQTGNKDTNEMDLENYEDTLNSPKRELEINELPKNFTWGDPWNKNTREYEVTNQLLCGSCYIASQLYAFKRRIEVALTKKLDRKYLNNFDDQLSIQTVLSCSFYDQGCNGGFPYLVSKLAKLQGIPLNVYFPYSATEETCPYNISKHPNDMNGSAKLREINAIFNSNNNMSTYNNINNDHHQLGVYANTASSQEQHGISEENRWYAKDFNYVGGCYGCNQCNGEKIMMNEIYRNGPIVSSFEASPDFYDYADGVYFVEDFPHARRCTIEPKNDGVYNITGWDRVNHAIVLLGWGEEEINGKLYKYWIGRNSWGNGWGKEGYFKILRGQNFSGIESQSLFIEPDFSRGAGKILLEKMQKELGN

Compound	% Inhibition @ 10 uM [%]
CCc1ccc(CN2CCN(C(=O)c3cc(OC)cc(OC)c3)CC2)cc1	-2.87
O=S(=O)(c1ccc(-c2cs/c(=N\c3ccccc3)n2CCN2CCOCC2)cc1)N1CCCC1	3.45
Cc1ccccc1C1NC(c2ccccc2C)C(C)C(=O)C1C (stereo not shown)	5.75
COc1cc(/C=C/c2nc(C#N)c(NCCCn3ccnc3)o2)cc(OC)c1OC	0.895
CC1=C(C(=O)Nc2cccnc2)C(c2ccc(C#N)cc2)n2nc(CCCO)nc2N1 (stereo not shown)	-1.16
Cc1nn(C(C)C(=O)NC(C)C)c(=O)c2nn(-c3ccccc3)c(C)c12 (stereo not shown)	3.66
N#C/C(=C/c1ccc(-c2ccc(C(N)=O)cc2)o1)c1nc2ccccc2[nH]1	-0.941
O=C(O)CCc1ccc(-c2ccc(F)cc2)n1NC(=O)c1ccccc1Br	-0.169
CC/N=C1\S/C(=C/c2cc3c(cc2OCC)OCO3)C(=O)N1CC	0.727
CCOC(=O)c1sc(NC(=O)CCN2CCCCC2)c(C(=O)OCC)c1C	0.565
O=C(NC(c1ccccc1)c1ccccc1)c1cc2ccccc2oc1=O	-4.35
CC(C)Oc1ccc(CNC(=O)c2cc3oc4ccccc4c3n2C)cc1	-7.02
CCOc1ccc(CN(C(=O)c2nc(S(C)(=O)=O)ncc2Cl)C2CCS(=O)(=O)C2)cc1 (stereo not shown)	-1.11
Cc1nnc(N2CCC(C(=O)NCc3cccnc3)CC2)c2nn(-c3ccccc3)c(C)c12	-4.57
c1cnc2c(Cc3c[nH]c4cccnc34)c[nH]c2c1	0.266
CCC(C)C(=O)Nc1ccc(NC(=O)c2cccs2)cc1 (stereo not shown)	0.512
CCCCC(=O)Nc1sc2c(c1C#N)CC(C)(C)NC2(C)C	0.726
O=P(O)(O)Cc1ccccc1OP(=O)(c1ccccc1)c1ccccc1	-1.93
CS(=O)(=O)c1nc(S(=O)(=O)c2ccc(Cl)cc2)c(NCCCN2CCCC2=O)s1	1.15
COc1ccc(C(CC(=O)O)NC(=O)c2ccc(F)cc2)cc1 (stereo not shown)	3.6
COc1ccc(-c2noc(CN(C(=O)c3ccc(C)c(C)c3)C(C)C)n2)cc1	-1.84
CC(=O)C1=C(C)Nc2nnnn2C1c1ccc(Cl)cc1 (stereo not shown)	0.0842
O=C(NCCCN1CCOCC1)C1CC(c2cccc(Br)c2)=NO1 (stereo not shown)	0.221
C=CCNc1oc(-c2ccccc2)nc1C#N	2.17
CCOCC(=O)Nc1cc(C)on1	-7.38

Compound	% Inhibition @ 10 uM [%]
Cc1ccc2nc3c(cc(C(N)=O)c(=N)n3CCc3ccccc3)c(=O)n2c1	8.18
CCCOc1ccc(C2C3=C(CCCC3=O)OC3=C2C(=O)CCC3)cc1	5.94
CN1CCN(Cc2cccc(F)c2)CC1	-0.192
CC(C)(C)c1ccc(OCCCC(=O)NC2CCCCC2)cc1	-11
O=C(Nc1cccc(C(=O)Nc2cccc(Cl)c2)c1)c1ccc(F)cc1	4.31
COc1ccc(CN(C)CCc2ccccn2)cc1OCc1ccccc1	-3.41
COc1cccc(CNc2nc3ccccc3n2C(C)C)c1O	-3.96
COc1ccc(Nc2nc(N3CCCCC3)nc(N3CCCCC3)n2)c(OC)c1	3
C=CCSc1nc(=O)c(CC)c(O)n1-c1ccccc1	-1.62
CC(C)(C)c1ccc(C(=O)Nc2nnc(CCc3ccccc3)s2)cc1	-2.6
Cc1ccc(S(=O)(=O)NC2=NCN(CCOC(=O)c3ccccc3)CN2)cc1	2.94
N#C/C(=C/c1cccc(F)c1)c1nc(-c2ccc(Cl)cc2)cs1	3.53
FC(F)(F)c1cccc(N2CCN(Cc3ccc4c(c3)OCCO4)CC2)c1	-5.65
CCOc1ccc(C(=O)C2=C(O)C(=O)N(CCN(CC)CC)C2c2ccc(C)cc2)c(C)c1 (stereo not shown)	-0.178
O=C(c1ccc(Br)o1)N(Cc1ccccc1)CC1CCC1	-1.44
O=C(O)c1c(CNCc2cccnc2)c2ccccc2n1Cc1ccccc1F	1.93
Cc1cc(C)c(C(=O)NCC(=O)c2ccccc2)c(C)c1	5.03
CCOc1ccc(S(=O)(=O)Nc2ccc(S(=O)(=O)Nc3ccc(C)cc3)cc2)cc1	13.3
CCOC(=O)N1CCN(Cc2cccc(Br)c2)CC1	1.08
COc1ccc(C(=O)Nc2c(F)cccc2F)cc1OC	8.82
Cc1ccc2nc(O)c3cc(C(=O)N4CCN(Cc5ccccc5)CC4)sc3c2c1	-1.66
Cc1ccc(C2=NN(CCC(=O)NCCC(C)C)C(=O)CC2)cc1	-3.58
O=C(NCCN1CCOCC1)c1nc(-c2cccnc2)no1	5.56
CS(=O)(=O)/N=C/N[C@@H](CC1CCCCC1)C(=O)NCC#N	-6.56
